Read counts are not given, so values of variants with three or more changes are uncertain.
B1: LINE1-mini (parent)
chain: GGCAGAGCUCAACACAGCGUGGCAAAGUGGCUGUGGCUAGACUGCC

Variants of: B1
Experiment: self-cleavage, relative activity (ratio to wild type); higher = more cleavage; in vitro, sequencing; the parent is a self-cleaving ribozyme
A6U G21A U28A C31A G36C showed a self-cleavage of 0.48.
A6U G33C C42G showed a self-cleavage of 0.03.
G7A C8U C31U U38C C42G showed a self-cleavage of 0.36.
For G7A A16U G27U, the self-cleavage was 0.16.
In the case of A6U G21A C23A G40A G44U, the self-cleavage is reported as 1.03.
With G7A A12U C13A G17U C23A U34C C37A the self-cleavage was 0.12.
A6U U20A G21C C46U showed a self-cleavage of 0.63.
Work on A6U G7C C31A yielded a self-cleavage of 0.03.
Variant G7A C10G G35C C42G has a self-cleavage of 0.02.
Variant A6U G7C C8G C42A has a self-cleavage of 0.41.
In the case of G7A A11G A25U U38C, the self-cleavage is reported as 0.03.
In the case of A6U G19U G40C, the self-cleavage is reported as 0.17.
For G7A C8A C31G C37U, the self-cleavage was 0.36.
G7A A16U G19C G29U gave a self-cleavage of 0.09.
Variant A6U U9A C15G C31U has a self-cleavage of 0.01.
Variant A6U C31A G36U C46U has a self-cleavage of 0.06.
A6U G7A C10A C13G G33A G35U gave a self-cleavage of 0.06.
With A6U G17C U32A G33C the self-cleavage was 0.01.
G7A C18G C23U G35C gave a self-cleavage of 0.06.
With A6U G17U A24U the self-cleavage was 0.09.
G7A A12C G19C showed a self-cleavage of 0.12.
Work on G7A C13A C23U A25G G29U yielded a self-cleavage of 0.04.
G7A A26U G30C showed a self-cleavage of 0.14.
For G7A C8G A14C, the self-cleavage was 0.12.
With A6U G19A G29A the self-cleavage was 1.41.
A6U C31U G35C C45A gave a self-cleavage of 0.17.
For G7A C8G U28G G29C, the self-cleavage was 0.02.
Variant G7A A14C C37G has a self-cleavage of 0.17.
In the case of A6U C31A C37A, the self-cleavage is reported as 0.06.
G7A C8U G33C gave a self-cleavage of 0.36.
In the case of G7A A11U G22A U28A, the self-cleavage is reported as 0.02.
Variant G7A A26C C31G has a self-cleavage of 0.02.
A6U U32A U34C gave a self-cleavage of 0.04.
Variant G7A C8G C13A G27U has a self-cleavage of 0.11.
With A6U C23U A25G the self-cleavage was 0.5.
With G7A C8U A11G C45A the self-cleavage was 0.04.
In the case of G7A A14G A25C, the self-cleavage is reported as 0.03.
G7A C8A A14U G17A G22U C45G showed a self-cleavage of 0.45.
With G7A A16U C23U G40C A41G C42A the self-cleavage was 0.02.
A6U G7A C23A G33U gave a self-cleavage of 0.02.
A6U G7A A26G C46A showed a self-cleavage of 0.05.
With G7A A14U G35C the self-cleavage was 0.11.
A6U G22C A24U gave a self-cleavage of 0.45.
For A6U G7C A16G C23A, the self-cleavage was 0.12.
Variant G7A C10U C15A G17A C37U has a self-cleavage of 0.05.
Work on A6U G19A G21C U28G yielded a self-cleavage of 0.35.
Work on A6U G7C U38A yielded a self-cleavage of 0.09.
Work on G7A C8G U20G G29A G35A U38C yielded a self-cleavage of 0.15.
A6U G36U G40A gave a self-cleavage of 0.04.
With A6U U20C A25C G33A the self-cleavage was 0.03.
With G7A C10G G22U C42U the self-cleavage was 0.01.
G7A C8G U28C G36U C37U G40A G44U gave a self-cleavage of 0.02.
For A6U G29U G35C A41G C42A, the self-cleavage was 0.04.
For A6U U9A G27C A39G, the self-cleavage was 0.02.
In the case of G7A A11G U28G C37A, the self-cleavage is reported as 0.01.
A6U G7C A39U gave a self-cleavage of 0.28.
With A6U U9C C15A G40C the self-cleavage was 0.04.
A6U G35U C37A gave a self-cleavage of 0.22.
For G7A A12U G19U G36A, the self-cleavage was 0.03.
Variant A6U C31U G33A G44U has a self-cleavage of 0.1.
Variant G7A A24C G29C U34A has a self-cleavage of 0.1.
With G7A A25U C31A the self-cleavage was 0.07.
Work on A6U G17A G22U G29U G36A G40A C45U yielded a self-cleavage of 0.12.
With G7A C18A G36U the self-cleavage was 0.03.
With G7A C8A G40A the self-cleavage was 0.41.
In the case of A6U U20A G35A G36A, the self-cleavage is reported as 0.49.
With G7A C8A A26C the self-cleavage was 0.21.
With A6U U9G U32A the self-cleavage was 0.02.
Work on G7A C10G G19C C42U yielded a self-cleavage of 0.
With G7A C10A G30C G36C the self-cleavage was 0.03.
G7A A16U G29A G35U showed a self-cleavage of 0.03.
G7A C18A C23G U43A gave a self-cleavage of 0.16.
G7A A12C C13A G19U G22C A26U U34G gave a self-cleavage of 0.02.
In the case of A6U U38G A39C, the self-cleavage is reported as 0.03.
With G7A A14U G21C G33A the self-cleavage was 0.07.
Work on G7A A12G U34G yielded a self-cleavage of 0.01.
G7A A25C U28A G29C G33C showed a self-cleavage of 0.57.
For A6U G7C A11U G19A A24G U38G C42G, the self-cleavage was 0.01.
For A6U U9A A12G C18U U38A, the self-cleavage was 0.02.
With A6U U9A C23A U34C the self-cleavage was 0.07.
In the case of G7A C8A G17U U28A G30C U32C U43C, the self-cleavage is reported as 0.08.
In the case of G7A A16G C37G A41C, the self-cleavage is reported as 0.02.
Variant G7A C10U U34A G35U has a self-cleavage of 0.03.
Variant G7A A16C A24U C42G has a self-cleavage of 0.05.
For G7A C10A A26G U28C, the self-cleavage was 0.5.
Variant A6U G7U U32G C37A has a self-cleavage of 0.05.
In the case of A6U G27A U28A U34C G36A, the self-cleavage is reported as 0.03.
In the case of G7A C8U C18U G29A C37U, the self-cleavage is reported as 0.16.
With G7A A12C U28C C45U the self-cleavage was 0.
In the case of A6U U9G A26G U28A, the self-cleavage is reported as 0.17.
Work on A6U G35A U38A C42G yielded a self-cleavage of 0.01.
G7A C13U G40C showed a self-cleavage of 0.19.
G7A C10A A12G A14C U20C G22A showed a self-cleavage of 0.01.
Work on G7A C8G G17U C31U yielded a self-cleavage of 0.02.
G7A C8U A12U G27U G36U G44A showed a self-cleavage of 0.31.
With G7A C15A G27U the self-cleavage was 0.14.
Variant G7A C13A C31U has a self-cleavage of 0.12.
G7A A11G U28C gave a self-cleavage of 0.
With G7A A11C A24U the self-cleavage was 0.02.
A6U G7C A11G A12G G33C G36U showed a self-cleavage of 0.02.
With A6U G33C C37A the self-cleavage was 0.02.
With A6U G17C G22C G40C the self-cleavage was 0.05.
Work on G7A C8A C18G yielded a self-cleavage of 0.39.
For A6U U9G U20A G30C C42U, the self-cleavage was 0.03.
G7A C15A A25G C45G gave a self-cleavage of 0.07.
In the case of A6U G7A U32C, the self-cleavage is reported as 0.03.
A6U G7A G30C U38C gave a self-cleavage of 0.06.
With G7A C8U C18G C23A G27A the self-cleavage was 0.84.
In the case of G7A C15G G17A, the self-cleavage is reported as 0.03.
With A6U G17C C37U the self-cleavage was 0.11.
With G7A A16C C37G U38C the self-cleavage was 0.
G7A C8A U32A G35U C42G showed a self-cleavage of 0.87.
G7A C18A G22C U32A U38A gave a self-cleavage of 0.02.
Variant A6U G22A A26C has a self-cleavage of 0.36.
In the case of G7A C15A A26G U28C, the self-cleavage is reported as 0.01.
A6U U9G G27A gave a self-cleavage of 0.02.
In the case of A6U G7U U34G, the self-cleavage is reported as 0.03.
In the case of G7A A24C C42G, the self-cleavage is reported as 0.
Work on A6U U20A A24C A26C G30A yielded a self-cleavage of 0.14.
For G7A C15U G21C G44C, the self-cleavage was 0.33.
For G7A C13A G17C A25C A26U G40U, the self-cleavage was 0.04.
Work on A6U G7U C10G A16U G17C C45U yielded a self-cleavage of 0.01.
For A6U G17C G19U G29U, the self-cleavage was 0.19.
For A6U G17A G30A, the self-cleavage was 0.24.
In the case of G7A A11G A14G U20A C42G G44U, the self-cleavage is reported as 0.03.
For G7A A25C G35C, the self-cleavage was 0.02.
A6U C37G A41C gave a self-cleavage of 0.02.
Variant G7A C10U G29C G44A has a self-cleavage of 0.02.
A6U G30U U32C U43C gave a self-cleavage of 0.04.
For G7A A12C G17C G44C, the self-cleavage was 0.01.
For A6U G21C C23U G29U, the self-cleavage was 0.35.
With G7A A14C C46U the self-cleavage was 0.07.
With G7A C13U A14C C15A U20C the self-cleavage was 0.16.
Work on G7A C8G A25U yielded a self-cleavage of 0.1.
G7A A26C C31A G33U U34A G36C C42A showed a self-cleavage of 0.15.
A6U G7U C10U G17A showed a self-cleavage of 0.02.
G7A C10A U38A U43A G44A gave a self-cleavage of 0.02.
With G7A A16C C23G the self-cleavage was 0.29.
With G7A C10A A14C G27U C42A the self-cleavage was 0.02.
In the case of A6U C37U A41G G44U, the self-cleavage is reported as 1.04.
For G7A C8A G17C C42A, the self-cleavage was 0.59.
Work on A6U U20C A41C yielded a self-cleavage of 0.02.
Variant A6U G22U G36A has a self-cleavage of 0.47.
Variant A6U G22A A41C has a self-cleavage of 0.03.
For G7A C13U G27C, the self-cleavage was 0.34.
Work on A6U U20A C23A U43G yielded a self-cleavage of 0.33.
In the case of G7A C15A C31A G40C U43C, the self-cleavage is reported as 0.07.
In the case of G7A C8G C10A A14C G22U G35U, the self-cleavage is reported as 0.04.
With A6U G7A U28C G35A the self-cleavage was 0.21.
Work on G7A A12G A25G G30A yielded a self-cleavage of 0.03.
With G7A C13U A26C the self-cleavage was 0.3.
In the case of G7A A12U C23U C31A, the self-cleavage is reported as 0.05.
For A6U C37G G40C, the self-cleavage was 0.01.
A6U U9A G22U G30A C37A gave a self-cleavage of 0.16.
Work on G7A C10G A26C G27U U38C yielded a self-cleavage of 0.01.
In the case of G7A C10G A14C C15A G21U C37U, the self-cleavage is reported as 0.02.
With A6U C23U G29U the self-cleavage was 1.44.
In the case of G7A A14C G19A G44C, the self-cleavage is reported as 0.06.
G7A C10U G21C U28A G44C gave a self-cleavage of 0.02.
Variant G7A A16U C18A G27A C31U C37A A41C has a self-cleavage of 0.01.
In the case of G7A C8G C10U G22A, the self-cleavage is reported as 0.02.
In the case of A6U U9G U32A C42G, the self-cleavage is reported as 0.02.
Variant A6U G27U G36U has a self-cleavage of 0.18.
With G7A C13A C15G G17C G29C G36C the self-cleavage was 0.06.
With A6U U9G C18A G27C A39C the self-cleavage was 0.25.
G7A C10U G19A U28C gave a self-cleavage of 0.04.
A6U U9G C10U G21A A24U G29A G30U C31A U34C gave a self-cleavage of 0.

— the RNAGym collection of RNA variant scans (doi:10.7554/elife.90254)
